According to ChEMBL document CHEMBL4888484, “Replenishing the malaria drug discovery pipeline: Screening and hit evaluation of the MMV Hit Generation Library 1 (HGL1) against asexual blood stage Plasmodium falciparum ,using a nano luciferase reporter read-out” (2022):
Hit rate of the full screen: of about 150,000 compounds, about 540 (0.36%) showed an effect of 50% or more. This is one part of the list.

Each compound was assayed on Plasmodium falciparum (assay: Primary screen in NF54 nanoGlo assay, in single point, at 2uM, 72h; a lower Z score goes with more inhibition). Settings: timepoint 72 hour.
Format: functional, Erythrocyte

How did the “% Inhibition” value turn out when CCn1ncc(C)c1NC(=O)c1occc1C was run?
The value was -8%.

What about the Z score of the same compound?
The Z score was 0.74.

For CCc1nc(C(=O)NC(C)C2CCCO2)nn1-c1c(Cl)cccc1Cl (stereo not drawn), which “% Inhibition” value is on record?
The value was -2%.

And the Z score?
Its Z score is 0.24.

Cc1nn(C)c(=O)c(-c2nnn(Cc3noc(C(C)C)n3)n2)c1C was tested. Which “% Inhibition” value did it give?
The value was 3%.

What about the Z score of the same compound?
The Z score was -0.38.

What does the source list for Cc1ccc2nc(-c3ccco3)nc(N3CCN(S(=O)(=O)c4ccccc4)CC3)c2c1?
% Inhibition: 0%; Z score: 0

CC(C)Cc1ccc(CN2CC[C@H](NC(=O)c3ccncc3)[C@@H](O)C2)cc1 was tested. Which “% Inhibition” value did it give?
The value was -13%.

And the Z score?
Its Z score is 2.4.

Which results are given for CCc1cc(C(=O)N2CCC[C@@]3(CCC(=O)N(Cc4cccnc4)C3)C2)no1?
% Inhibition: -11%; Z score: 1.24

How did the “% Inhibition” value turn out when CCN(CC)S(=O)(=O)c1ccc(C(C#N)C(=O)C2CC2C)nc1 (stereo not drawn) was run?
The value was -9%.

And the Z score?
The Z score was 1.25.

What does the source list for COCC(=O)N1CCC[C@H](c2nnc3n2CCN(C(=O)c2ccc(OC)cc2C)C3)C1?
% Inhibition: -14%; Z score: 2.74

For C[C@@H](C(=O)OC(C)(C)C)c1nc(-c2cnccn2)no1, which “% Inhibition” value is on record?
The value was 16%.

What about the Z score of the same compound?
The Z score was -1.91.

What does the source list for C=C[C@H]1OCC[C@@H]1NC(=O)C(C)(C)c1cccnc1?
% Inhibition: 9%; Z score: -1.14

What does the source list for C[C@@H](CCCC(C)(C)O)NC(=O)c1nccn1C?
% Inhibition: -6%; Z score: 0.93

How did the “% Inhibition” value turn out when CN(CC(O)COCc1ccc2c(c1)OCO2)CC1CCCO1 (stereo not drawn) was run?
The value was -8%.

And the Z score?
Its Z score is 0.94.

Which “% Inhibition” value does the source give for Cc1ncc(-c2nc(CCC(F)(F)F)no2)c(N)n1 here?
The value was -4%.

What about the Z score of the same compound?
The Z score was 0.51.

With c1ccc(-c2cn3c4ccccc4nc3n2CCCN2CCCC2)cc1 as the compound, how does the “% Inhibition” value read?
The value was 1%.

What about the Z score of the same compound?
Its Z score is -0.14.

Cc1cc(S(=O)(=O)N2Cc3cncnc3C2)ccc1F was tested. Which “% Inhibition” value did it give?
The value was -4%.

What about the Z score of the same compound?
Its Z score is 0.66.

How did the “% Inhibition” value turn out when OCc1ccc(CNC2CCOC2c2ccccc2)o1 (stereo not drawn) was run?
The value was -11%.

And the Z score?
Its Z score is 0.97.

Which results are given for O=C1CCC(=O)N1CCCNc1cc(C(F)F)ncn1?
% Inhibition: -2%; Z score: 0.32

What does the source list for CC1CCCC(N(CC(=O)Nc2ccc(C(N)=O)cc2)Cc2ccc3c(c2)OCO3)C1C (stereo not drawn)?
% Inhibition: 5%; Z score: -0.83

Which results are given for COc1cccc(-c2nc(-c3nnn4c3CO[C@H](c3ccccc3Cl)C4)no2)c1OC?
% Inhibition: -12%; Z score: 1.87

What does the source list for COc1ccc([C@@]2(c3nc(-c4cccnn4)no3)CC2(C)C)cc1?
% Inhibition: -3%; Z score: 0.53

How did the “% Inhibition” value turn out when CC(C)C1(c2ccccc2)CN(C(=O)C[C@H](C)n2ccnc2)C1 was run?
The value was -14%.

What about the Z score of the same compound?
The Z score was 2.65.

How did the “% Inhibition” value turn out when Cc1ncc2c(n1)CCC[C@@H]2Nc1ccc(Br)cn1 was run?
The value was -11%.

What about the Z score of the same compound?
The Z score was 1.16.

With CCCN(CC#Cc1ccccc1)C[C@H](O)CO as the compound, how does the “% Inhibition” value read?
The value was -10%.

What about the Z score of the same compound?
Its Z score is 1.97.

What does the source list for Cc1ccc(S(=O)(=O)N2CCN(C(=O)NCc3ccco3)CC2)cc1?
% Inhibition: 9%; Z score: -1.2

Which “% Inhibition” value does the source give for Cc1c(Cl)ccc2sc(N(Cc3ccccn3)C(=O)CN3C(=O)CCC3=O)nc12 here?
Its value is -13%.

What about the Z score of the same compound?
The Z score was 1.6.

For c1cc(CN2CC[C@@]3(CCCN(CC4CCC4)C3)C2)n(-c2nccs2)c1, which “% Inhibition” value is on record?
The value was -14%.

What about the Z score of the same compound?
The Z score was 2.12.

What does the source list for c1cnc(N2CCC(N[C@H]3CCCc4occc43)CC2)nc1?
% Inhibition: -3%; Z score: 0.38

Which “% Inhibition” value does the source give for Cc1ccc(C)c(NC(=O)CNC(=O)N2CC(=O)Nc3ccccc32)c1 here?
Its value is 35%.

And the Z score?
Its Z score is -3.99.

With CCc1noc(C)c1C(=O)N(Cc1ccc2c(c1)CCO2)C1CCCC1 as the compound, how does the “% Inhibition” value read?
The value was -11%.

And the Z score?
The Z score was 1.5.

Which “% Inhibition” value does the source give for Cc1c(C)n(Cc2ccco2)c2ncnc(N3CCC(C(=O)O)CC3)c12 here?
The value was -23%.

What about the Z score of the same compound?
The Z score was 2.15.

Which results are given for C[C@H](NS(=O)(=O)c1cccnc1)c1ccc(-c2cccnc2)cc1?
% Inhibition: -1%; Z score: 0.12

Which results are given for CC(C)N(CC(=O)N1CCn2cccc2[C@H]1c1cccc(Oc2ccccc2)c1)C(=O)C(c1ccccc1)c1ccccc1?
% Inhibition: -6%; Z score: 0.65

C[C@@H](c1ccccc1)N(C(=O)CN1CCC(=O)NC1=O)C1CCCC1 was tested. Which “% Inhibition” value did it give?
Its value is 3%.

What about the Z score of the same compound?
The Z score was -0.49.

Which “% Inhibition” value does the source give for COc1ccccc1-c1cn2c(n1)CO[C@@H](CNC(C)C)C2 here?
The value was -11%.

What about the Z score of the same compound?
Its Z score is 1.41.

Which results are given for O=S(=O)(Cc1ccon1)N1CCOCc2ccccc21?
% Inhibition: -6%; Z score: 0.87

With O=C(NCCc1ccc2c(c1)OCCO2)c1ccccn1 as the compound, how does the “% Inhibition” value read?
Its value is -9%.

And the Z score?
Its Z score is 1.12.

Which results are given for CC1CCS(=O)(=O)CCN1C(=O)N[C@@H]1C[C@H]1c1c(F)cccc1Cl (stereo partly drawn)?
% Inhibition: 6%; Z score: -0.94

Which results are given for CCOC(=O)C1(F)CN(C(=O)C2CCCCC(=O)N2)CC12COC2 (stereo not drawn)?
% Inhibition: -7%; Z score: 0.84

For O=C(c1cccc(S(=O)(=O)Nc2cccc(Cl)c2)c1)N1CCO[C@]2(CCOC2)C1, which “% Inhibition” value is on record?
The value was 17%.

And the Z score?
The Z score was -2.22.

What does the source list for COC(=O)[C@@H]1C[C@H](O)CCN1C(=O)Cc1csc(-c2ccccc2)n1?
% Inhibition: -11%; Z score: 1.67

Which “% Inhibition” value does the source give for O=C(Nc1cccc(CCN2CCCC2)c1)c1ccon1 here?
Its value is -3%.

What about the Z score of the same compound?
The Z score was 0.36.

O=C(Cc1ncc[nH]1)NCC1(c2ccccc2Cl)CCOCC1 was tested. Which “% Inhibition” value did it give?
Its value is 1%.

And the Z score?
The Z score was -0.28.

With CC(=O)Nc1cccc(S(=O)(=O)N[C@@H](C)c2nc(C(C)C)no2)c1 as the compound, how does the “% Inhibition” value read?
Its value is -12%.

What about the Z score of the same compound?
Its Z score is 1.92.

Which results are given for Cc1ccc(C[C@H]2CCOC3(CCN(S(=O)(=O)c4c(C)nn(C)c4C)CC3)C2)cc1?
% Inhibition: -19%; Z score: 2.47

Which results are given for CN(C)c1nc(C#N)nc(N2CCOCC2)n1?
% Inhibition: -7%; Z score: 0.93

For O=C(CNC(=O)c1cccc(Br)c1)Nc1ccc2c(c1)OCCCO2, which “% Inhibition” value is on record?
The value was -9%.

And the Z score?
Its Z score is 1.15.

CC1=CCN(C(=O)NCC2(S(C)(=O)=O)CCCC2)CC1 was tested. Which “% Inhibition” value did it give?
The value was 15%.

What about the Z score of the same compound?
The Z score was -1.88.

Which results are given for CCCCc1oc2ccccc2c1CN1CCC(N(C)C(C)=O)CC1?
% Inhibition: 6%; Z score: -0.66

Which “% Inhibition” value does the source give for CC(C)c1nnc(Cn2cncn2)s1 here?
The value was -14%.

And the Z score?
The Z score was 2.21.

How did the “% Inhibition” value turn out when C[C@@]1(C(=O)NCCc2ccccc2)CCCCC(=O)N1 was run?
Its value is -7%.

What about the Z score of the same compound?
The Z score was 0.84.

How did the “% Inhibition” value turn out when CC1(C)C[C@@H]1C(=O)N1CCC(c2ccccc2)CC1 was run?
The value was 6%.

What about the Z score of the same compound?
Its Z score is -0.95.

For CC(C)(C)[C@H]1CCc2c(sc(NC(=O)CN3CCCC3)c2C#N)C1, which “% Inhibition” value is on record?
The value was 10%.

What about the Z score of the same compound?
The Z score was -1.29.

With CO[C@H](C(=O)Nc1cncc(Br)c1O)C1CC1 as the compound, how does the “% Inhibition” value read?
Its value is -6%.

What about the Z score of the same compound?
Its Z score is 0.82.

For C[C@@H](C(=O)Nc1nccs1)N1CCN(c2cnccn2)CC1, which “% Inhibition” value is on record?
The value was 8%.

What about the Z score of the same compound?
The Z score was -1.45.
